# Data as given in the supplement of paper PMC3334620.
# Whole data set: some 33,000 sequences, median “E-score (-0.5 to 0.5)” near -0.036, cut for the highest 2% near 0.37. The list shows a part of the results.
# Target: T1, Yer064c (UniProt P40041)
# T1 sequence: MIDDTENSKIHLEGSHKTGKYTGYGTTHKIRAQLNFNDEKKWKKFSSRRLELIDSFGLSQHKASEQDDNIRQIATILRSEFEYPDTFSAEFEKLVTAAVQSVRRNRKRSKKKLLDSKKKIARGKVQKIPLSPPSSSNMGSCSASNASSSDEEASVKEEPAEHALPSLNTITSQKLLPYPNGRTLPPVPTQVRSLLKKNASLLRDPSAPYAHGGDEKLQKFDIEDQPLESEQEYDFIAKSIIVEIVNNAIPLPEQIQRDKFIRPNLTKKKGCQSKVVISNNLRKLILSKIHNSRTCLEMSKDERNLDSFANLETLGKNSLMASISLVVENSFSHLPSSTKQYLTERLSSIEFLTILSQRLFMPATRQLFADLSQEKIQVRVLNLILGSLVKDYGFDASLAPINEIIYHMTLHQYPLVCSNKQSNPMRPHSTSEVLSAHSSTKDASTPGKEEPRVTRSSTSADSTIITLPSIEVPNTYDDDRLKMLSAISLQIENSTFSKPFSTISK
# Assay: PBM E-score (8-mer binding enrichment) (E-score (-0.5 to 0.5)); higher = stronger / more preferred TF binding; most listed sequences are background and not binding sites
# Conditions: protein concentration: 200 nM; construct: GST-full length
# Procedure, shortened: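 Yeast transcription factors, full-length or as DNA-binding domains, were expressed with a GST tag using PURExpress in vitro transcription/translation. At about 100-200 nM they were applied to universal all-10-mer Agilent arrays, double-stranded by primer extension on fresh or once-stripped slides. Fluorescent anti-GST detected bound protein, and masliner normalised the scans. E-scores for ungapped eight-base words, pooled with reverse complements, came from the Universal PBM Analysis Suite.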
row,Sequence,PBM E-score
1,GTATCAAA,0.223
2,CCTTGGCA,-0.134
3,ACGGTTGC,-0.187
4,ACTTAAAA,0.225
5,ATGCGCGC,-0.127
6,GTTATCGA,-0.13
7,CTGGCCAA,0.0359
8,CGGCTATC,-0.14
9,AAGGGGCC,-0.145
10,AGTTACAG,-0.027
11,ACACGGTC,-0.142
12,CACGATAG,-0.0151
13,CCAAATGA,0.207
14,GATCATTA,0.128
15,CGAACGCC,-0.33
16,AGCGGAAT,-0.00939
17,AGCTGGGC,-0.162
18,GCAGTCAA,0.281
19,AGATCGAC,-0.169
20,TCCACACA,-0.0811
21,GGCATTGA,-0.103
22,AAATTCGA,-0.05
23,GCCAAGGC,-0.214
24,CTAAAAAG,0.0232
25,CAGTGTCG,-0.265

row,Sequence,PBM E-score
1,ATGCACTG,-0.051
2,AATATTTA,0.0684
3,TAGCAATA,0.0604
4,ACCAAAGA,0.156
5,ATTGGGAG,-0.0622
6,CACTACTC,0.112
7,AGAACAAT,-0.0126
8,CGTATAGC,-0.14
9,GTCGTAAA,0.206
10,AAAACTCC,-0.0996
11,AAAGTGTG,0.145
12,CCAACACC,-0.158
13,ATCTTGCA,0.16
14,CCGGACAC,-0.223
15,GAAGCACC,-0.132
16,GACTACTC,0.427
17,CCGTGCAG,-0.0727
18,AGGCGTTA,-0.123
19,CAATCCAA,-0.126
20,ATCGGATC,-0.142
21,CTCGCCGA,0.11
22,AGTATAAT,0.15
23,ACGTGTAC,-0.0329
24,TACTACCA,0.00773
25,CAAAGATA,-0.0257

row,Sequence,PBM E-score
1,CGTCCAGA,-0.208
2,GCATATCC,-0.255
3,GAACGCGA,0.176
4,CGAATTCG,-0.0217
5,CGCGCACC,-0.28
6,ATATGTAC,0.0162
7,AGAGCAGA,0.0558
8,ACCGTATA,0.0638
9,CAGAGGCA,-0.0329
10,ATAGAAAA,-0.0945
11,AAGCCGCT,-0.12
12,AGACGGAT,0.0246
13,AGATACTG,-0.144
14,ACTCTCAC,0.173
15,AATTGCGT,-0.0875
16,CATAATAA,-0.022
17,AATATTGC,0.0528
18,CCTGAATA,0.0546
19,CACACAGC,-0.024
20,CCTTGTCA,-0.0353
21,AGCGCTCA,0.0423
22,AAATGTGA,0.00892
23,AATGACGA,0.0304
24,ACTCCGTG,0.149
25,AGAGTCCG,0.212

row,Sequence,PBM E-score
1,ACCTTGTC,-0.295
2,AGAGTTCC,-0.286
3,GATATACA,-0.106
4,CTATGCCC,-0.234
5,ATTACGCA,0.168
6,AAACTGGG,-0.3
7,GACCATCC,-0.118
8,ATTCCATG,-0.0378
9,CGAGGTCC,-0.259
10,AAACCTCT,-0.209
11,GGGTGATA,-0.0177
12,CTCCTAAG,-0.0146
13,CCGATAAA,0.0305
14,CACAGACA,0.028
15,ATGCATTG,-0.073
16,AGGGGCCG,-0.045
17,CAGATGGA,-0.152
18,CGCGATAA,0.0411
19,ATGAAAAC,0.0395
20,TGACAGAA,-0.0303
21,AACAGGTC,-0.00323
22,ACTACACA,0.284
23,ATGTCTGC,-0.228
24,GCACTATA,-0.207
25,AACGACCC,-0.08

row,Sequence,PBM E-score
1,GTCCATTA,0.217
2,CCCGGAGC,-0.126
3,TCGCGTCA,0.0267
4,AAGCCACA,0.0204
5,CCCACTCC,-0.231
6,CATCTCCG,-0.0103
7,GCACACCA,-0.166
8,ATTCTTCC,-0.102
9,CCGCCATA,0.0616
10,CACAGCAC,-0.141
11,ACAAGTAC,-0.0421
12,AGGACAAG,-0.135
13,AATTTTCG,-0.0818
14,GGCTACAC,0.235
15,GGATCAAA,0.00661
16,AGGGAGAG,-0.0408
17,GACAGGTA,-0.117
18,AAAGACGA,0.0816
19,GGATCGCC,-0.209
20,GAAGGGAC,-0.0755
21,ATGTTTCA,0.0586
22,CCGGGACC,-0.114
23,AAGACCAT,0.109
24,GAGATCAA,0.0881
25,CGTATATA,0.0012

row,Sequence,PBM E-score
1,CTCACAAG,0.208
2,CCCCGAAG,-0.00793
3,CCTATAGA,-0.0552
4,AAGCTGAT,0.142
5,AGTTCTCC,-0.127
6,ATCCATGG,0.0496
7,GCTTGTAA,0.0285
8,CTAAATCC,0.208
9,CGGGATTC,0.199
10,AACGCTAA,0.095
11,CTTTGGTC,0.0794
12,AGGTAGGC,-0.231
13,AGCACTAA,0.0227
14,CACGTCGA,-0.057
15,CATTGAGG,-0.285
16,CCTTGGTA,0.00702
17,GCTGAACC,0.0762
18,AAGATTCC,0.181
19,ATGAAATC,0.145
20,GGAGTACC,0.0469
21,ACACCCGA,-0.0679
22,CGTGTATC,-0.0178
23,CCAATGAA,-0.158
24,CCCCCTAC,-0.182
25,ATATAGTC,0.403

row,Sequence,PBM E-score
1,ACCACTGA,0.0922
2,GGAACCGA,-0.232
3,AGTATATG,-0.0601
4,CATTGACA,-0.0863
5,AGGGCGTG,-0.261
6,CGCCCGGC,-0.0174
7,CCCTCGTA,-0.256
8,AACGCCAT,-0.252
9,CCAACGCG,-0.177
10,ATGACCAT,0.192
11,AACGACGT,-0.16
12,CTGCATGA,0.176
13,CACGAAGG,-0.124
14,CCCCTAAC,-0.255
15,CCCGGCGA,-0.17
16,CATCACAG,-0.14
17,CTATCTTC,0.0749
18,ACGCGAGA,0.0886
19,GCAAACGA,0.0382
20,AGGACTAT,0.31
21,GAAGCGGA,-0.189
22,GAGCAAAC,0.00217
